Results taken from publication PMC3541543.
These are yes or no findings as the source states them, for the method shown. For some assays here: Binding seen in cells or lysates may run through a third protein. Some binding calls cover weakened binding; strength is not graded here. For some assays here: Sequences can lack the tags named with a protein. One block for each binder: values may come before it.

Legend:
[1] = biological target: T1, USH2A isoform B intracellular domain (aa 5064 to 5202), yeast two-hybrid bait (human) (UniProt O75445); assay: two-hybrid; GAL4-based system (HybriZAP); screen of an oligo-d(T) primed human retinal cDNA library with USH2A isoB ICD as bait; clones activated all four reporter genes
T1 sequence: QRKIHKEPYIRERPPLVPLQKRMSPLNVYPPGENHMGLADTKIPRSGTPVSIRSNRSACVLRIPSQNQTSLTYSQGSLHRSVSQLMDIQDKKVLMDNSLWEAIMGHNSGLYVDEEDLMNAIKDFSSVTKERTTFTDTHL

[2] = biological target: T2, GST-fused USH2A isoform B intracellular domain (aa 5064 to 5202) (human) (UniProt O75445); assay: pull-down; GST fusion protein from E. coli as bait; Flag-tagged protein from COS-1 cell lysate; detected by anti-Flag antibody; only the target purified
T2 sequence: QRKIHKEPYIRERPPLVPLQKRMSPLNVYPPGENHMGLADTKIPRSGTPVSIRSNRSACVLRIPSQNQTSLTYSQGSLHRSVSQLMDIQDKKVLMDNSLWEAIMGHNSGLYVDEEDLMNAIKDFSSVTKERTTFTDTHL

[3] = biological target: T3, USH2A isoform B peptide aa 5064 to 5196, yeast two-hybrid construct (human) (UniProt O75445); assay: two-hybrid; GAL4-based system; deletion constructs of USH2A isoB ICD against fragments of the SPAG5 two-hybrid clone
T3 sequence: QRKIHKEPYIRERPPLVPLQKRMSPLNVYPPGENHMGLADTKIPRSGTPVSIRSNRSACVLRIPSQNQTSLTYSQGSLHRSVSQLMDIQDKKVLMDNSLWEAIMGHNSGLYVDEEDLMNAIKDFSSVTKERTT

[4] = biological target: T4, GFP-tagged USH2A isoform B intracellular domain (human) (UniProt O75445); assay: co-IP; from COS-1 cell lysates; GFP-fused USH2A isoB ICD precipitated with anti-GFP antibody, HA-tagged proteins detected
T4 sequence: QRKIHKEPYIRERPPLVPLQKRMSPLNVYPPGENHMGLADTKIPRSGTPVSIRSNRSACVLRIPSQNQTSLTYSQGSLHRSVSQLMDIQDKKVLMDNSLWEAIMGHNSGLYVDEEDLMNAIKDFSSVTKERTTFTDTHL

B2: Flag-tagged full-length SPAG5 (protein, UniProt Q96R06 1-1193)
chain: MWRVKKLSLSLSPSPQTGKPSMRTPLRELTLQPGALTNSGKRSPACSSLTPSLCKLGLQEGSNNSSPVDFVNNKRTDLSSEHFSHSSKWLETCQHESDEQPLDPIPQISSTPKTSEEAVDPLGNYMVKTIVLVPSPLGQQQDMIFEARLDTMAETNSISLNGPLRTDDLVREEVAPCMGDRFSEVAAVSEKPIFQESPSHLLEESPPNPCSEQLHCSKESLSSRTEAVREDLVPSESNAFLPSSVLWLSPSTALAADFRVNHVDPEEEIVEHGAMEEREMRFPTHPKESETEDQALVSSVEDILSTCLTPNLVEMESQEAPGPAVEDVGRILGSDTESWMSPLAWLEKGVNTSVMLENLRQSLSLPSMLRDAAIGTTPFSTCSVGTWFTPSAPQEKSTNTSQTGLVGTKHSTSETEQLLCGRPPDLTALSRHDLEDNLLSSLVILEVLSRQLRDWKSQLAVPHPETQDSSTQTDTSHSGITNKLQHLKESHEMGQALQQARNVMQSWVLISKELISLLHLSLLHLEEDKTTVSQESRRAETLVCCCFDLLKKLRAKLQSLKAEREEARHREEMALRGKDAAEIVLEAFCAHASQRISQLEQDLASMREFRGLLKDAQTQLVGLHAKQEELVQQTVSLTSTLQQDWRSMQLDYTTWTALLSRSRQLTEKLTVKSQQALQERDVAIEEKQEVSRVLEQVSAQLEECKGQTEQLELENSRLATDLRAQLQILANMDSQLKELQSQHTHCAQDLAMKDELLCQLTQSNEEQAAQWQKEEMALKHMQAELQQQQAVLAKEVRDLKETLEFADQENQVAHLELGQVECQLKTTLEVLRERSLQCENLKDTVENLTAKLASTIADNQEQDLEKTRQYSQKLGLLTEQLQSLTLFLQTKLKEKTEQETLLLSTACPPTQEHPLPNDRTFLGSILTAVADEEPESTPVPLLGSDKSAFTRVASMVSLQPAETPGMEESLAEMSIMTTELQSLCSLLQESKEEAIRTLQRKICELQARLQAQEEQHQEVQKAKEADIEKLNQALCLRYKNEKELQEVIQQQNEKILEQIDKSGELISLREEVTHLTRSLRRAETETKVLQEALAGQLDSNCQPMATNWIQEKVWLSQEVDKLRVMFLEMKNEKEKLMIKFQSHRNILEENLRRSDKELEKLDDIVQHIYKTLLSIPEVVRGCKELQGLLEFLS
binding [2]: binds

B4: HA-tagged SPAG5 aa 973 to 1193 (domain or fragment, UniProt Q96R06 973-1193)
chain: MSIMTTELQSLCSLLQESKEEAIRTLQRKICELQARLQAQEEQHQEVQKAKEADIEKLNQALCLRYKNEKELQEVIQQQNEKILEQIDKSGELISLREEVTHLTRSLRRAETETKVLQEALAGQLDSNCQPMATNWIQEKVWLSQEVDKLRVMFLEMKNEKEKLMIKFQSHRNILEENLRRSDKELEKLDDIVQHIYKTLLSIPEVVRGCKELQGLLEFLS
binding [4]: binds

B5: HA-whirlin (protein, UniProt Q9P202 1-907)
chain: MNAPLDGLSVSSSSTGSLGSAAGAGGGGGAGLRLLSANVRQLHQALTALLSEAEREQFTHCLNAYHARRNVFDLVRTLRVLLDSPVKRRLLPMLRLVIPRSDQLLFDQYTAEGLYLPATTPYRQPAWGGPDSAGPGEVRLVSLRRAKAHEGLGFSIRGGSEHGVGIYVSLVEPGSLAEKEGLRVGDQILRVNDKSLARVTHAEAVKALKGSKKLVLSVYSAGRIPGGYVTNHIYTWVDPQGRSISPPSGLPQPHGGALRQQEGDRRSTLHLLQGGDEKKVNLVLGDGRSLGLTIRGGAEYGLGIYITGVDPGSEAEGSGLKVGDQILEVNGRSFLNILHDEAVRLLKSSRHLILTVKDVGRLPHARTTVDETKWIASSRIRETMANSAGFLGDLTTEGINKPGFYKGPAGSQVTLSSLGNQTRVLLEEQARHLLNEQEHATMAYYLDEYRGGSVSVEALVMALFKLLNTHAKFSLLSEVRGTISPQDLERFDHLVLRREIESMKARQPPGPGAGDTYSMVSYSDTGSSTGSHGTSTTVSSARNTLDLEETGEAVQGNINALPDVSVDDVRSTSQGLSSFKPLPRPPPLAQGNDLPLGQPRKLGREDLQPPSSMPSCSGTVFSAPQNRSPPAGTAPTPGTSSAQDLPSSPIYASVSPANPSSKRPLDAHLALVNQHPIGPFPRVQSPPHLKSPSAEATVAGGCLLPPSPSGHPDQTGTNQHFVMVEVHRPDSEPDVNEVRALPQTRTASTLSQLSDSGQTLSEDSGVDAGEAEASAPGRGRQSVSTKSRSSKELPRNERPTDGANKPPGLLEPTSTLVRVKKSAATLGIAIEGGANTRQPLPRIVTIQRGGSAHNCGQLKVGHVILEVNGLTLRGKEHREAARIIAEAFKTKDRDYIDFLVTEFNVML
binding [4]: binds

More lines, now with the values ahead:

binding [1]: binds
B1: SPAG5 aa 774 to 1193, yeast two-hybrid clone from a human retinal cDNA library (domain or fragment, UniProt Q96R06 774-1193)
chain: EEMALKHMQAELQQQQAVLAKEVRDLKETLEFADQENQVAHLELGQVECQLKTTLEVLRERSLQCENLKDTVENLTAKLASTIADNQEQDLEKTRQYSQKLGLLTEQLQSLTLFLQTKLKEKTEQETLLLSTACPPTQEHPLPNDRTFLGSILTAVADEEPESTPVPLLGSDKSAFTRVASMVSLQPAETPGMEESLAEMSIMTTELQSLCSLLQESKEEAIRTLQRKICELQARLQAQEEQHQEVQKAKEADIEKLNQALCLRYKNEKELQEVIQQQNEKILEQIDKSGELISLREEVTHLTRSLRRAETETKVLQEALAGQLDSNCQPMATNWIQEKVWLSQEVDKLRVMFLEMKNEKEKLMIKFQSHRNILEENLRRSDKELEKLDDIVQHIYKTLLSIPEVVRGCKELQGLLEFLS

binding [3]: binds
B3: SPAG5 fragment aa 973 to 1193, yeast two-hybrid construct (domain or fragment, UniProt Q96R06 973-1193)
chain: MSIMTTELQSLCSLLQESKEEAIRTLQRKICELQARLQAQEEQHQEVQKAKEADIEKLNQALCLRYKNEKELQEVIQQQNEKILEQIDKSGELISLREEVTHLTRSLRRAETETKVLQEALAGQLDSNCQPMATNWIQEKVWLSQEVDKLRVMFLEMKNEKEKLMIKFQSHRNILEENLRRSDKELEKLDDIVQHIYKTLLSIPEVVRGCKELQGLLEFLS
